In all, about 33,000 sequences were measured (“E-score (-0.5 to 0.5)”: median about -0.013, highest 2% from about 0.3 on). Some of the results follow.
What follows are sequences tested against T1, Msn1 (UniProt P22148) (assay: PBM E-score (8-mer binding enrichment) (E-score (-0.5 to 0.5)); higher = stronger / more preferred TF binding; most listed sequences are background and not binding sites). Conditions: protein concentration: 200 nM; construct: GST-full length.
T1 sequence: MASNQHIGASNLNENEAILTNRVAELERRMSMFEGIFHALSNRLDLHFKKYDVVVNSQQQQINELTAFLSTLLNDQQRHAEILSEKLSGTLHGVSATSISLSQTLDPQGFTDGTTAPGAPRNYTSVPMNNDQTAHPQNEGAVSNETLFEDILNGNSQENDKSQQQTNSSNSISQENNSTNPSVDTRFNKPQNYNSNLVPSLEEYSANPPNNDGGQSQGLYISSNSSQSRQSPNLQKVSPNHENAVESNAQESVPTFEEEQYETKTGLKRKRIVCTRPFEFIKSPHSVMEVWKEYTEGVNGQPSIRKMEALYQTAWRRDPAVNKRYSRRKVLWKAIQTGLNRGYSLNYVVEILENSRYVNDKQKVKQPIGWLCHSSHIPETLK
In short: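 Universal all-10-mer Agilent arrays, double-stranded by primer extension on fresh or once-stripped slides, were probed with about 100-200 nM GST-tagged yeast transcription factors made by PURExpress. Fluorescent anti-GST detected bound protein, and masliner normalised the scans. E-scores from the Universal PBM Analysis Suite were given to each ungapped eight-base word pooled with its reverse complement.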

Sequence	PBM E-score
AGGAGGAA	-0.187
ATACTGGG	-0.0202
AACTAGTC	0.116
AACGATCG	0.13
ACCCAAGT	0.0153
ACGCCATG	0.0667
AAGCTTGG	-0.0757
AACCACCT	-0.00544
CGCTGGTA	-0.155
GCCAGGCA	-0.0442
CACCCTTA	0.0165
ACGTCAAA	0.164
GTATGATA	0.2
AACAACGC	0.0709
CGGTCCAG	-0.144
ATATATGA	0.155
AGCCTAAT	-0.00341
AATATTAA	0.318
GACGTACC	-0.0232
ACGCTAGG	-0.203
CTTTCGTA	0.0777
ATTAAAGG	0.0633
AGCTCTTG	-0.0733
CCCTTACC	-0.181
ACGAACCG	0.0562

Sequence	PBM E-score
AGTGCTGA	-0.125
ACGGCGGC	-0.162
CGGGTACC	-0.07
ATCCGTCC	0.175
GAAACTTC	-0.0245
ATTTCCAC	0.106
ACTCTAAA	0.0135
CTGAAGTC	-0.0347
ATTAAGTC	0.197
CATAATCG	0.192
CTACCGCA	-0.00604
AAGAGGTG	0.04
ACTACTAG	0.176
AGGTATTA	0.0178
GCTTGCCA	-0.131
AGCGCGCT	-0.0376
TCGGCGAA	0.103
AGGTGAGG	-0.16
GCCCTGCC	-0.296
CCCGGCAA	0.051
AGAAGTCC	0.164
CCGGCCGG	0.124
CTGAACGC	-0.138
CAATACGC	0.0416
GGTGACAA	0.322

Sequence	PBM E-score
GCATCACC	-0.217
TTCCTAAA	0.0739
AGATAATG	0.0408
CGTTTGCC	0.107
ATGAGGAC	0.145
GCCATCGC	-0.234
ATTATTAA	0.18
CACGCCGG	0.0797
TGAAAAAA	0.221
ACGCGCGG	-0.0102
ACAATCGA	0.159
TATACTGA	0.262
ACAAAGTG	0.0484
CTCATAGA	0.0272
CACATGGA	0.0113
TGATTCAA	-0.0386
CAACCGGG	-0.0889
ATGAATAC	-0.0655
TCGCCCAA	-0.0031
TGTGATAA	0.0376
AAGTGCAA	0.0957
AAACATGG	0.0412
ATGCACAA	0.0261
AGGGCAGC	-0.185
GTTGTAAA	-0.135

Sequence	PBM E-score
ATATGATG	0.113
TCCTAAGA	0.0389
GCTTGATA	0.051
ACCAGCGC	-0.136
GAATAAAA	0.238
CGTCGGTA	-0.164
AGTCACCC	-0.015
ATATCGGG	0.153
AATGAAGT	0.054
TCAAATGA	-0.0369
ACGTGTAG	-0.134
ACCACGTG	0.0353
GCATCCCC	-0.145
GCATACAA	0.206
AACGGGAA	0.118
ACGGCGAG	0.0597
GGACTCTA	-0.214
CACACGTA	-0.0851
CCGTTGCG	-0.0164
GAGAAACA	0.0761
CGGAGGGA	0.0529
ATCCCTAA	-0.222
CGGCCAAC	-0.154
GCAGCGGC	-0.176
AAAGCCGC	0.00017

Sequence	PBM E-score
GAGTGTGA	-0.051
ACCGTCCT	-0.0742
CCTTGGAG	-0.133
AACGATTG	0.0949
AAATTGGA	0.205
ACCAGGTA	-0.207
AGGTAGTG	-0.158
ACGGTTAT	-0.0602
CAATGAGA	-0.156
AGTGGCCG	-0.278
CGTGACCC	0.0216
GTTTCTTA	0.0545
CCCATCGC	-0.249
GAATTACA	0.0111
GCGGGAAA	-0.0328
ATGTCGGA	0.253
AGATCGAA	0.0194
GGCTGAAA	0.00836
CTCTCGCC	-0.191
TCTAGAGA	-0.17
CGTATTAG	0.13
AGATAGTC	-0.0911
AAAAGGTT	-0.111
ATTCATCC	0.0917
CAGTGATC	-0.0606

Sequence	PBM E-score
CCCTGAGG	-0.159
CCATAATA	-0.0421
ATCCAGTG	0.0645
CCGCGTTA	-0.00964
GCCGGACA	0.357
ACGTCGGG	-0.101
GCGCTCGA	0.0163
TAATTCTA	0.193
CTCCTGGA	-0.185
CTCAGGAA	0.00021
GATTAGGA	0.0838
CTGAGACA	0.319
TTAAGCAA	0.119
AGTTTAAG	0.0278
AGGAACCT	-0.03
ACTCGCTC	0.00656
ATAGGCAA	-0.12
ATGTTATA	-0.0164
AGCCCATA	-0.197
GACTGTGA	-0.0953
CTAGATGC	-0.0777
AGGATTCC	-0.0174
AGCTCTTA	-0.0201
GGCCGCCA	-0.261
CCATCTCC	-0.169

Sequence	PBM E-score
CGACTCGA	-0.0191
AGGCTTAA	0.0111
AAATGAAA	0.305
CGTCGGAA	0.078
ACGAGGGA	-0.0299
CGCAAAGC	0.0415
CTCCGAAA	0.0712
GAGATGGA	-0.137
ATCTCCGC	-0.208
GGTATGTA	-0.0675
CAAGAACA	-0.00332
ACCCATCT	-0.0379
CCACTTGC	-0.132
AGCCCGGC	-0.0865
CCCACAGC	-0.00603
AAAGTACT	0.0721
CCAGACCG	-0.145
GTAAGAAA	-0.0298
CATCCACC	-0.111
AACGAGTC	-0.0621
AGCCTCGC	-0.179
AGCATTGG	-0.227

Reference: the supplement of paper PMC3334620
